Source: the supplement of paper PMC10126150
Values marked as one replicate rest on one cluster of the flow cell; about a third of the high ones do not repeat.

System: ATP
Test: switch fluorescence ratio, 500 uM ATP over buffer (Cy3 cluster intensity, sum of 5 cycles each) (fold (ratio)); higher = stronger signal-on switching upon ATP binding; sequences stand for … in TCGTCGGCAGCGTCAGATGTGTATAAGAGACAGTTTTTTTTTTTTTTTTTTTTTTTTT…TC
Details: aptamer strand: ATP DNA aptamer (quencher-CACCTGGGGGAGTATTGCGGAGGAAGG + anchor), 100 nM annealed; ATP concentration: 500 uM; one replicate
In short: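 Cy3-labelled switching-strand clusters on a modified Illumina MiSeq flow-cell were annealed to 100 nM quencher-labelled ATP aptamer, imaged in selection buffer, then imaged after 15 min with 500 uM ATP at 22 °C. Five buffer/ATP cycles ran, with NaOH stripping and re-annealing between them. The fluorescence ratio is summed target-cycle over summed buffer-cycle Cy3 intensity per cluster, averaged per switch-domain sequence. Clusters outside 100-1000 RFU were excluded.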
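Note: ATP exposure 15 min at 22 °C before imaging.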

Row | Sequence | switch fluorescence ratio
1 | AGGACAGC | 0.986
2 | ACTTTTGAAG | 0.97
3 | ATAGGCGAGC | 1.02
4 | GCTTCCGATG | 2.95
5 | CTAATCGACT | 1.02
6 | TGCTTGGATG | 1.07
7 | CCCGCGTTTA | 1.08
8 | TTAAGTCTAG | 0.998
9 | GGGTTATATC | 1.02
10 | TTTGGACGTA | 1.04
11 | ACGGGTCAAG | 0.963
12 | TCCTATTTTT | 1.03
13 | GAATCATGAG | 1.08
14 | TGCAGGTG | 2.26
15 | GTTTATTTAC | 1.05
16 | CAATTGCTAA | 1.03
17 | AGGGGAAAAA | 1.03
18 | TGCCAGACGC | 1.04
19 | GATCTCTCAC | 1.06
20 | CATGGCTGTT | 1.04
21 | AAACGACATA | 1.08
22 | CGTAGCCCTC | 1.17
23 | GTGTTTTGGA | 0.934

Row | Sequence | switch fluorescence ratio
24 | GCGCAGTCAT | 1
25 | CCGCGCACTG | 1.66
26 | TCAGCACTGG | 1.05
27 | TTTAGAATTA | 1.02
28 | GTTGTAATCG | 1.01
29 | CTTCGTGTT | 0.985
30 | TTTACTGAAT | 1.01
31 | TTCGGTCACT | 1
32 | AACGATGGAA | 0.981
33 | GGTCCAGGCG | 0.984
34 | TCGGGCAGAA | 1.02
35 | ATACTTCCTG | 1.19
36 | CGAAGCTGGG | 1.55
37 | ATGCGGTTAA | 1.01
38 | AGACAAAGTG | 1.01
39 | AAAATCGGTT | 0.969
40 | CTCGGTCAGT | 1.01
41 | CATCTCAAGC | 1.38
42 | GATCGAGCGC | 1.05
43 | ATACCAACGT | 1.37
44 | AGGTGCATTA | 1.04
45 | AGGTTCCGCT | 1.07
46 | CGGGTTGAAG | 0.97

Row | Sequence | switch fluorescence ratio
47 | TAGACGCACA | 1.98
48 | GTTATGTGCG | 1.01
49 | TACTCGCCCC | 1.44
50 | CTGAGTCAGT | 1.02
51 | TCTTGGCTG | 1.06
52 | CTGACGTGTA | 1.45
53 | TTGGCCACTG | 0.968
54 | GTGCCGCGGA | 0.966
55 | TTCTACGCAG | 1.13
56 | AAGGTGCGG | 0.994
57 | AGCAAATGCT | 1.26
58 | AGGGTCGAGA | 0.962
59 | TAAAAGCCGG | 0.967
60 | GTTCGAATTA | 0.989
61 | GTAACAAAGG | 1.05
62 | TGACCACG | 1.01
63 | ATGGCCGGAG | 1.04
64 | CGTGACCTCG | 1.04
65 | GATTCTTTAG | 0.97
66 | CGGGTCTATA | 1.01
67 | TGGCACTAGT | 0.972
68 | AGGGGAAACT | 0.992
69 | GAATGCAAGA | 1.21

Row | Sequence | switch fluorescence ratio
70 | GGTAATCCCT | 1.08
71 | AAGTAAACAA | 1.03
72 | ACATTGTACC | 1.14
73 | GTTTGTGCTG | 0.993
74 | GATGGACTTG | 1.02
75 | TTTCCAACTT | 1.01
76 | TCGGCCCTTA | 1.03
77 | AGATGTTACC | 1.04
78 | TTTGCTCCT | 1
79 | ACTTGTCTCT | 1.02
80 | CCTATTTGAA | 0.991
81 | CTGGAGTC | 0.99
82 | GGCTGTTGCT | 0.95
83 | CCCAGAAATC | 1.6
84 | TGCGCTGTTC | 1.26
85 | ATTAATAATA | 1.01
86 | AGTAAAAAGC | 0.944
87 | TTTCTTGCAT | 1.01
88 | ATTGTGGAAG | 0.98
89 | GCTACTGTGA | 1
90 | TCGTATAACT | 1.03
91 | AATGAGCCT | 1.12
92 | ACTTTAGTTT | 0.988

Row | Sequence | switch fluorescence ratio
93 | TCCAGCTTCT | 1.06
94 | TTTTAATTCT | 1
95 | AGGAAATCTT | 1.05
96 | TTGTCGACGT | 0.971
97 | CATGGGGCAG | 1
98 | GGTTTCCGGT | 0.969
99 | CGCGAATACT | 2.73
100 | TCATCGGCG | 0.914
101 | AGGAAGGCGA | 0.973
102 | TATACTAGAG | 1.07
103 | TACAAGGTTG | 1.03
104 | CAGTTAAGGT | 1
105 | ACAAGATTTG | 0.982
106 | ACGTGCTAAG | 1
107 | GCCTGA | 1
108 | AATGTCTACA | 0.978
109 | TTTAAATTAT | 0.994
110 | TTTCACGATT | 0.969
111 | TTGTCAGCGA | 1.04
112 | CTGATCGGCA | 1.15
113 | ACCGCGGGGA | 1.02
114 | CACGTCAGAT | 1.12
115 | TAGTAACTT | 1.02

Row | Sequence | switch fluorescence ratio
116 | CGCACGTTCA | 0.999
117 | ATGCTACGAG | 1.03
118 | CACCCCGATT | 1.06
119 | GTTTACCAGG | 1.18
120 | ATAATACGTA | 1.04
121 | AATAAGGCTT | 0.953
122 | TGCATATTGA | 1.22
123 | AGAGGGGGCT | 1
124 | CCGGAGGAAA | 0.995
125 | CTCCAACGAG | 1.13
126 | CACACACTCG | 1.32
127 | CGTGAAGAGC | 1.01
128 | GAGGGCTATA | 1.04
129 | ATTAGATTG | 1.02
130 | ATAAAAGTGC | 1.12
131 | ATTTGTCT | 1.03
132 | GGGGCGTCCT | 0.985
133 | ACAGGAATGT | 0.939
134 | AAGCGACGGG | 1.01
135 | TCGGCTGGGC | 0.964
136 | GGAATCTAA | 1.02
137 | GTACCCAATG | 1
138 | AGTCCGTGCG | 1.03

Row | Sequence | switch fluorescence ratio
139 | CTACGGAATT | 3.21
140 | AGGAGAAACT | 0.945
141 | TTGTTCATC | 0.961
142 | CGGCAAATG | 1.1
143 | ACCTAGGGC | 1.02
144 | GCCGTAGAGG | 0.96
145 | TACGGCATTT | 0.985
146 | TATGAGTTTG | 0.976
147 | CGCAGTTGTA | 1
148 | TGCTGAATGC | 1.02
149 | CTAAGCTTAG | 0.989
150 | TATAGAGGAT | 1.08
151 | TAAATTTCGC | 0.99
152 | GTCGGTTCCC | 0.977
153 | CGGAATTCAA | 0.99
154 | AGGCTCGAAC | 0.984
155 | TGTCGACTAG | 0.966
156 | TACTATGCTC | 1.05
157 | GCGACAGGTA | 1.02
158 | AATCGGGCCG | 1.06
